Results reported in paper PMC4336329 (PLoS ONE, 2015).
Among all 310,000 compounds or so, about 14,000 (4.5%) showed an effect of 50% or more. The effect is printed as a negative number. The list shows a part of the results.

target: human ether-à-go-go-related gene (hERG) potassium channel (human, UniProt Q12809); assay: primary screen, population patch clamp on CHO cells stably expressing hERG
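Note: peak tail current of the secondary pulse compared with the same well before compound.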

human ether-à-go-go-related gene (hERG) potassium channel, sequence (Q12809 whole entry, looked up): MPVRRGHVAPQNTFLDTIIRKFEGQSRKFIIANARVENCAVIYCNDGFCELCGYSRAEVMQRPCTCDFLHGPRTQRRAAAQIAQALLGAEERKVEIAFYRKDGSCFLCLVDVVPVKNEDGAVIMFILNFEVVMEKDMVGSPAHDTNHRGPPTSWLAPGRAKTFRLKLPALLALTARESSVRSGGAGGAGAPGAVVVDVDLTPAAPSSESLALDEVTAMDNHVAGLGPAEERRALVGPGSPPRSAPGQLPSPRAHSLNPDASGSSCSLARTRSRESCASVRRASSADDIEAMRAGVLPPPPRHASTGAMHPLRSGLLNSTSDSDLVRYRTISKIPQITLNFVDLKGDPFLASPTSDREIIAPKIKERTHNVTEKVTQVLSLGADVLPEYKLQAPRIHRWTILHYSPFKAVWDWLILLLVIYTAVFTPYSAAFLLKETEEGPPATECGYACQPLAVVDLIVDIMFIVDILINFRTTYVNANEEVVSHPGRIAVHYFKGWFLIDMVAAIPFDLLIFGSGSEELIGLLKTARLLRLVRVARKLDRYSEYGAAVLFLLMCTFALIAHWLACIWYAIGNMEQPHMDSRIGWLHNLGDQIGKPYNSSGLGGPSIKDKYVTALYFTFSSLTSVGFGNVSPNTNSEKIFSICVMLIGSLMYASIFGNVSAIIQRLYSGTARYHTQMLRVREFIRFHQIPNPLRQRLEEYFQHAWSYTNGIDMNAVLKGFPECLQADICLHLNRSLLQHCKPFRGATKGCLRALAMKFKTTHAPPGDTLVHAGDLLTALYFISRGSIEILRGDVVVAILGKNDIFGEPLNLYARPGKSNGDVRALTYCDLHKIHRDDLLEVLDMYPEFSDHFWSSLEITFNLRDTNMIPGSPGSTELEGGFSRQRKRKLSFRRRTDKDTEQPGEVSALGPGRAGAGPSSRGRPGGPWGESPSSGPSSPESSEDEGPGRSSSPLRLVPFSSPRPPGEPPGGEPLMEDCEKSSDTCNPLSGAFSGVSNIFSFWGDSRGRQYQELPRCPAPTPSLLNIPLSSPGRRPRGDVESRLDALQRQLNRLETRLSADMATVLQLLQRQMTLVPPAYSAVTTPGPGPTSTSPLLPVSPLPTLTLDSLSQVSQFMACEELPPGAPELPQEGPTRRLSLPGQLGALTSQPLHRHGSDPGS

| Compound | hERG current change (%, negative = inhibition) at 10uM |
| --- | --- |
| Cc1ccc(NC2SC(=O)N(CC(=O)O)C2=O)cc1 (centres unmarked) | 3.97% |
| Cc1cc(Cl)ccc1NC(=S)Nc1cccnc1 | -0.381% |
| O=C(/C=C/c1ccccc1)Oc1coc(CSc2ncccn2)cc1=O | -31.5% |
| Cc1ccccc1CNC(=O)c1ccccc1N | -2.89% |
| O=C(COc1ccc(F)cc1)NCC1CCCO1 (centres unmarked) | -7.21% |
| CCOc1ccc(-c2cc(N)n(S(=O)(=O)c3cccc4nsnc34)n2)cc1 | -0.861% |
| CN1/C(=C/C(=O)c2ccc(Cl)cc2)Sc2cc3c(cc21)OCO3 | 1.29% |
| CCCn1c(N)c(C(=O)CSc2n[nH]c(-c3ccccc3F)n2)c(=O)n(C)c1=O | -9.83% |
| CCN1C(=O)CC(C(=O)O)SC1=Nc1ccc(OC)cc1 (centres unmarked) | -1.5% |
| COc1ccc(CC(=O)NCc2nn(-c3ccccc3)nc2C)cc1OC | 3.42% |
| CCCCc1cc(=O)oc2cc(C)cc(OC(C)C(=O)NCC3CCC(C(=O)O)CC3)c12 (centres unmarked) | 11.3% |
| OC(COC(c1ccccc1)c1ccccc1)CN1CCOCC1 (centres unmarked) | -5.77% |
| CCN1CCN(c2nc3c(C)cccn3c(=O)c2/C=C(\C#N)S(=O)(=O)c2ccc(Cl)cc2)CC1 | -44.9% |
| COc1ccc(C(C(=O)NCCC(C)C)N(CCN2CCOCC2)C(=O)Cn2nnc3ccccc32)c(OC)c1 (centres unmarked) | -24.3% |
| COc1cc(NC(=O)C2=C(N3CCOCC3)/C(=C/c3ccc(Cl)cc3)CC2)cc(OC)c1OC | -6.95% |
| O=C(O)C(Cc1ccccc1)N1Cc2ccccc2C1=O (centres unmarked) | -3.47% |
| O=C(Nc1ccc(OC(F)(F)F)cc1)c1ccc2ccccc2n1 | 13.6% |
| CCCC(=O)C1=C(O)C(C(=O)OC)C(C)(C)CC1=NCCCCCC(=O)O (centres unmarked) | 13.9% |
| CCCC1CC(C)(/C(C)=N\NC(N)=S)OC1=O (centres unmarked) | 12.4% |
| O=C(CNS(=O)(=O)c1ccc(F)cc1)N1CCN(c2ccccc2)CC1 | -11.7% |
| COc1ccccc1/C=C1/C(=N/O)C2CCN1CC2 | 0.383% |
| CCCCn1c(O)c(C(C)=NCc2ccc3c(c2)OCO3)c(=O)[nH]c1=O | -2.46% |

| Compound | hERG current change (%, negative = inhibition) at 10uM |
| --- | --- |
| Cc1cc(NC(=O)/C=C/c2ccc(F)cc2)n(-c2nc3ccccc3[nH]2)n1 | -3.69% |
| CN(C)CCCN(CCCNC(=O)/C=N/O)Cc1ccccc1 | 1.31% |
| O=S(=O)(Nc1ccccc1)c1ccc(-c2csnn2)cc1 | -7.1% |
| CCN(CC)c1ccc(C=NCCc2ccc(S(N)(=O)=O)cc2)cc1 | 9.89% |
| CC(C)(C)CC(=O)NC(=S)Nc1ccccc1C(F)(F)F | -6.6% |
| COC(=O)c1ccccc1NC(=S)N1CCN(c2ccccc2)CC1 | -0.00642% |
| COc1ccc(Cl)cc1Nc1nc(N)c2ccccc2n1.Cl | 20.4% |
| Cc1ccc(C2=NS(=O)(=O)N(C)C(C(=O)Nc3cc(C)n(CC(=O)N4CCCCC4)n3)=C2)cc1 | 10.3% |
| CCCOc1ccc(C2C(=O)N(C3CCCCC3)CC(=O)N2CCCOCC)cc1OC (centres unmarked) | -8.57% |
| CCOC(=O)C1C(C)=CC(=O)CC1c1ccco1 (centres unmarked) | 9.3% |
| CN(C)S(=O)(=O)c1c(Cl)cccc1Cl | 19.7% |
| CN(C)C(=S)Nc1cccc(C(F)(F)F)c1 | 5.67% |
| O=C(O)C1CCCN1C(=O)Nc1ccccc1 (centres unmarked) | 4.38% |
| N#Cc1ccccc1S(=O)(=O)c1ccccc1C(=O)Nc1ccccc1 | 13% |
| Cc1cccc(-n2c(=S)[nH]c3c(oc4ccccc43)c2=O)c1 | 26.6% |
| CC(C)CCC(CCN1CCOCC1)c1ccc2c(c1)OCO2.Cl (centres unmarked) | -72.9% |
| CCN1/C(=C2/SC(=S)N(NC(C)=O)C2=O)Sc2ccccc21 | 23.9% |
| COc1ccc(S(=O)(=O)N2CCN(C(=O)C3CC3)CC2)cc1Br | -36% |
| O=C1CC(c2ccccc2)CC(O)=C1C=NC1CCCCCC1 (centres unmarked) | 6.58% |
| O=C(NC1=NCCS1)c1ccc(Cl)c(S(=O)(=O)N2CCCC2)c1 | -2.24% |
| CCN(CC)S(=O)(=O)c1cc(NC(=O)CN2C(=O)NC3(CCCc4ccccc43)C2=O)ccc1C (centres unmarked) | -1.57% |
| CCN1CCN(C(=S)c2ccc(OCC(=O)NCc3ccccc3)cc2)CC1 | -3.65% |
